Substrate in the series “not read”: CN(C)CCCN1c2ccccc2CCc2ccccc21
Kind of series: not read.

Substrate in series [1]: COc1ccc([C@@H]2Sc3ccccc3N(CCN(C)C)C(=O)[C@@H]2OC(C)=O)cc1
Kind of series: Drug metabolism in assessed as human CYP3A4-mediated metabolism. The series is classed as ADME.

B1: Cytochrome P450 3A4 (Homo sapiens) (protein)
chain: MALIPDLAMETWLLLAVSLVLLYLYGTHSHGLFKKLGIPGPTPLPFLGNILSYHKGFCMFDMECHKKYGKVWGFYDGQQPVLAITDPDMIKTVLVKECYSVFTNRRPFGPVGFMKSAISIAEDEEWKRLRSLLSPTFTSGKLKEMVPIIAQYGDVLVRNLRREAETGKPVTLKDVFGAYSMDVITSTSFGVNIDSLNNPQDPFVENTKKLLRFDFLDPFFLSITVFPFLIPILEVLNICVFPREVTNFLRKSVKRMKESRLEDTQKHRVDFLQLMIDSQNSKETESHKALSDLELVAQSIIFIFAGYETTSSVLSFIMYELATHPDVQQKLQEEIDAVLPNKAPPTYDTVLQMEYLDMVVNETLRLFPIAMRLERVCKKDVEINGMFIPKGVVVMIPSYALHRDPKYWTEPEKFLPERFSKKNKDNIDPYIYTPFGSGPRNCIGMRFALMNMKLALIRVLQNFSFKPCKETQIPLKLSLGGLLQPEKPVVLKVESRDGTVSGA
Regarding B1, in the series “not read”, the Km – broadly, the concentration of substrate that gives half-maximal velocity – was found to be 5 µM and the Vmax (commonly the rate approached at saturating substrate) was 0.000117 µmol/min. For the same protein, in series [1], the Km worked out at 23 µM and the Vmax is 0.00188 µmol/min.
